Reference: the supplement of paper PMC12217912
The list shows a part of the results. Sequences were assembled here from the parent chain. Values near 0.05 are background.

B1: TEV protease; numbered along this chain (parent)
chain: MGESLFKGPRDYNPISSSICHLTNESDGHTTSLYGIGFGPFIITNKHLFRRNNGTLVVQSLHGVFKVKDTTTLQQHLVDGRDMIIIRMPKDFPPFPQKLKFREPQREERICLVTTNFQTKSMSSMVSDTSCTFPSGDGIFWKHWIQTKDGQCGSPLVSTRDGFIVGIHSASNFTNTNNYFTSVPKNFMELLTNQEAQQWVSGWRLNADSVLWGGHKVFMVKPEEPFQPVKEATQL

Variants of: B1
Experiment: raw area under fraction-flipped curve 0-4 h after induction (AUC4h, not background-subtracted), DNA-recorder readout of cleavage of the substrate (dimensionless); higher = more cleavage of the substrate by the protease variant
Conditions: temperature: 34 °C; time window: 0-4 h after rhamnose induction
Protocol: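 In vivo DNA recorder in E. coli TOP10(DE3) ΔrhaA at 34 °C. Each TEVp single-site mutant (parent TEVp 0) is paired with a single-site variant of the 7-mer TEVs (canonical ENLYFQ|S). The substrate sits between flexible linkers in a Bxb1-sfGFP-TEVs-SsrA fusion, so cleavage stabilises Bxb1 and speeds flipping of a recombination array, read by NGS. The value is the raw area under the fraction-flipped curve over 0-4 h after rhamnose induction (AUC4h), with ≥20 reads per time point. It is not background-subtracted; inactive controls average about 0.047.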
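Note: Bxb1 expression induced with 0.2% (w/v) L-rhamnose at OD600 near 0.5, cultures sampled hourly, flipped fraction per protease–substrate barcode pair counted by paired-end Illumina sequencing.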

| Variant | area with substrate ENLYFAS | area with substrate ENLYFCS | area with substrate ENLYFDS | area with substrate ENLYFES | area with substrate ENLYFFS | area with substrate ENLYFKS | area with substrate ENLYFLS | area with substrate ENLYFMS | area with substrate ENLYFNS | area with substrate ENLYFPS | area with substrate ENLYFTS | area with substrate ENLYFYS | area with substrate ENLYFGS | area with substrate ENLYFHS | area with substrate ENLYFIS | area with substrate ENLYFRS | area with substrate ENLYFSS | area with substrate ENLYFWS | area with substrate ENLYFVS |
| --- | --- | --- | --- | --- | --- | --- | --- | --- | --- | --- | --- | --- | --- | --- | --- | --- | --- | --- | --- |
| I167D | 0.0524 | 0.05 | 0.0621 | 0.0507 | 0.0573 | 0.0425 | 0.0475 | 0.0158 | 0.039 | 0.0534 | 0.0585 | 0.0464 |  |  |  |  |  |  |  |
| D208L | 0.0617 | 0.059 |  |  |  |  |  | 0.06 |  | 0.073 | 0.0722 | 0.0604 | 0.0716 | 0.0452 | 0.0537 | 0.0594 | 0.0547 | 0.0464 |  |
| D208H | 0.0456 |  |  | 0.0597 |  |  |  |  | 0.0616 | 0.053 | 0.0432 | 0.0428 |  |  | 0.0791 |  |  | 0.0704 |  |
| D208M | 0.0553 | 0.0511 | 0.0327 |  |  |  |  | 0.0771 | 0.0581 | 0.0597 |  | 0.0551 |  | 0.0575 | 0.061 | 0.0477 |  | 0.0582 |  |
| D208Y | 0.062 | 0.0556 | 0.0697 | 0.0584 | 0.0686 | 0.0452 |  | 0.0689 | 0.0557 | 0.0488 | 0.0551 | 0.0545 | 0.0525 |  | 0.052 | 0.0485 | 0.0558 | 0.054 | 0.074 |
| D208R | 0.092 | 0.0648 | 0.0523 | 0.0609 | 0.0646 |  | 0.0526 | 0.0465 | 0.0411 | 0.0595 | 0.0854 | 0.0489 | 0.062 | 0.0473 |  | 0.0592 |  | 0.0517 | 0.0501 |
| D208C | 0.0697 | 0.054 |  | 0.0551 | 0.0631 | 0.0703 | 0.0885 | 0.0495 | 0.0657 | 0.0838 | 0.0606 | 0.0647 | 0.0658 |  | 0.0734 | 0.0801 |  | 0.0467 |  |
| D208F | 0.0622 | 0.0594 | 0.052 | 0.0574 | 0.066 | 0.0457 | 0.0587 | 0.0685 |  | 0.0529 | 0.0642 | 0.0565 | 0.0609 | 0.0483 | 0.0571 | 0.0598 | 0.0694 | 0.0518 | 0.0635 |
| Q194G | 0.0634 | 0.0526 |  | 0.065 | 0.0827 |  | 0.0473 | 0.0638 | 0.0606 | 0.0588 | 0.0638 |  |  | 0.0583 | 0.0618 | 0.0665 | 0.0603 |  |  |
| R204I | 0.0502 | 0.0503 | 0.0544 | 0.0621 | 0.0676 | 0.0669 | 0.0611 | 0.0679 | 0.0732 | 0.0567 | 0.0523 | 0.0533 | 0.0632 | 0.0651 | 0.061 | 0.0546 | 0.054 | 0.0531 | 0.0582 |
| G166C | 0.047 | 0.0584 |  | 0.0522 | 0.0648 | 0.0283 | 0.0607 | 0.062 | 0.0509 | 0.0537 | 0.053 | 0.0497 | 0.0605 |  | 0.0534 | 0.0577 | 0.0477 | 0.0479 |  |
| V165C | 0.0363 |  | 0.058 | 0.0621 | 0.0677 |  |  | 0.0531 | 0.0655 | 0.0548 | 0.0477 | 0.0732 | 0.0605 |  | 0.0555 |  | 0.0582 | 0.0648 | 0.0536 |
| R160Q | 0.0592 |  | 0.0909 | 0.0789 | 0.0642 |  |  | 0.0579 | 0.061 | 0.0616 | 0.0517 |  |  | 0.0535 |  | 0.0643 |  | 0.0582 | 0.0579 |
| R160C | 0.0581 |  |  | 0.064 | 0.0681 | 0.0491 |  |  | 0.051 | 0.0574 | 0.0754 | 0.0544 | 0.0603 | 0.061 | 0.0522 |  | 0.0589 | 0.0574 | 0.0521 |
| R160E | 0.0302 | 0.0542 | 0.0442 | 0.0663 |  | 0.0584 | 0.0959 | 0.0742 | 0.0579 | 0.0631 | 0.0593 | 0.0647 | 0.0698 | 0.0664 | 0.0601 | 0.0599 | 0.0734 | 0.0689 | 0.0362 |
| R160G | 0.0609 | 0.0414 |  | 0.066 |  |  |  | 0.0641 | 0.0573 | 0.0664 | 0.0725 |  |  | 0.0564 | 0.0605 | 0.0527 | 0.0718 | 0.06 | 0.0563 |
| R160T | 0.0336 |  |  |  |  | 0.0644 | 0.0623 | 0.0612 |  | 0.0765 | 0.0597 | 0.0617 |  |  | 0.0557 | 0.0679 | 0.064 |  |  |
| N206F | 0.0622 | 0.0604 |  | 0.0635 | 0.0807 | 0.0534 |  | 0.0602 | 0.0361 | 0.0657 | 0.0511 |  |  | 0.0428 | 0.052 | 0.0661 | 0.0243 | 0.0567 |  |
| T192L | 0.0574 | 0.0572 |  |  | 0.0493 | 0.0598 | 0.0513 |  |  | 0.0694 | 0.0532 | 0.058 |  |  | 0.0473 | 0.0588 | 0.0672 | 0.0501 |  |
| T192R | 0.0611 | 0.0596 | 0.0473 | 0.0578 | 0.0597 |  | 0.0599 | 0.0573 | 0.0634 | 0.0754 | 0.0598 | 0.0566 |  |  | 0.0674 |  | 0.0539 | 0.0542 |  |
| T192N | 0.0564 | 0.0571 |  | 0.0614 | 0.0601 | 0.0724 |  | 0.0611 | 0.0671 | 0.0498 | 0.0622 | 0.0777 | 0.0555 | 0.0745 | 0.0526 | 0.0618 | 0.0503 | 0.0557 |  |
| T192K | 0.0589 | 0.051 |  | 0.0621 | 0.0803 | 0.0626 |  | 0.0585 | 0.0619 | 0.0535 | 0.0526 | 0.0761 |  | 0.0682 | 0.0336 |  | 0.0692 | 0.0538 | 0.053 |
| I164F | 0.0599 |  |  |  | 0.036 |  |  |  | 0.061 | 0.131 |  |  |  |  | 0.0306 |  |  | 0.0352 |  |
| V200F | 0.0529 | 0.0652 | 0.0631 |  |  |  |  | 0.0669 |  |  |  |  | 0.0542 |  | 0.0567 |  |  | 0.0528 | 0.06 |
| V200C | 0.0544 | 0.0722 | 0.0717 | 0.0585 | 0.0627 | 0.0628 |  |  | 0.0619 | 0.0641 | 0.0538 | 0.0669 | 0.0612 |  | 0.0585 | 0.0459 |  | 0.0586 | 0.0648 |
| V200Y | 0.0931 | 0.051 |  | 0.038 | 0.0679 | 0.0659 |  | 0.0521 |  | 0.0549 |  | 0.0443 |  | 0.0779 | 0.0588 |  |  | 0.0438 |  |
